In paper PMC12820563:
The list shows a part of the results. The list includes weakly bound sequences.

Target: T1, MBP-FoxP3dN (UniProt Q99JB6)
T1 sequence: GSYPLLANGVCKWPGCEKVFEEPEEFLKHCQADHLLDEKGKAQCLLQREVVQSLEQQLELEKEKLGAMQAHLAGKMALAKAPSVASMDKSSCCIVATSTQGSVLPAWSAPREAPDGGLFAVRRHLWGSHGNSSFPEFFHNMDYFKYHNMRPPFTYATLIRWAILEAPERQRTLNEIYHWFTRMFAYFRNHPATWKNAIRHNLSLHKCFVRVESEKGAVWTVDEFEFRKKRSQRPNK
Assay: PD-seq (MBP pull-down with sequencing)
Details: 20 mM Tris-HCl pH 7.5, 100 mM NaCl, 1.5 mM MgCl2, 0.4 uM protein, 0.1 uM dsDNA library, 30 min, room temperature, amylose pull-down; high values mean tight binding; double strand, one strand shown

Row | Sequence | binding signal (RPM ratio (pull-down/input))
1 | GATGATTGTTCTCCCAGCTGATGAATTTGCTCGCTCGAGTAAACAAATTTTCCTAATCTTTCTGTTCAAGCGCCATCTAC | 0.403
2 | GATGATTGTTCTCCCAGCTGATGAATTAACTCAGTCGAGTAAACAAATTTTCCTAATCTTTCTGTTCAAGCGCCATCTAC | 0.222
3 | GATGATTGTTCTCCCAGCTGATGAATTCTCCGATTCGAGTAAACAAATTTTCCTAATCTTTCTGTTCAAGCGCCATCTAC | 0.191
4 | GATGATTGTTCTCCCAGCTGATGAATTGCTCTACTCGAGTAAACAAATTTTCCTAATCTTTCTGTTCAAGCGCCATCTAC | 0.488
5 | GATGATTGTTCTCCCAGCTGATGAATTGAAATTTTCGAGTAAACAAATTTTCCTAATCTTTCTGTTCAAGCGCCATCTAC | 0.292
6 | GATGATTGTTCTCCCAGCTGATGAATTTAGACACTCGAGTAAACAAATTTTCCTAATCTTTCTGTTCAAGCGCCATCTAC | 1.73
7 | GATGATTGTTCTCCCAGCTGATGAATTGTGTGCATCGAGTAAACAAATTTTCCTAATCTTTCTGTTCAAGCGCCATCTAC | 2.8
8 | GATGATTGTTCTCCCAGCTGATGAATTAACCGCCTCGAGTAAACAAATTTTCCTAATCTTTCTGTTCAAGCGCCATCTAC | 0.479
9 | GATGATTGTTCTCCCAGCTGATGAATTTCAGGCCTCGAGTAAACAAATTTTCCTAATCTTTCTGTTCAAGCGCCATCTAC | 0.445
10 | GATGATTGTTCTCCCAGCTGATGAATTTATTACTTCGAGTAAACAAATTTTCCTAATCTTTCTGTTCAAGCGCCATCTAC | 1.39
11 | GATGATTGTTCTCCCAGCTGATGAATTGCGCAGTTCGAGTAAACAAATTTTCCTAATCTTTCTGTTCAAGCGCCATCTAC | 1.95
12 | GATGATTGTTCTCCCAGCTGATGAATTTCATAGCTCGAGTAAACAAATTTTCCTAATCTTTCTGTTCAAGCGCCATCTAC | 0.415
13 | GATGATTGTTCTCCCAGCTGATGAATTCCCCCGGTCGAGTAAACAAATTTTCCTAATCTTTCTGTTCAAGCGCCATCTAC | 0.163
14 | GATGATTGTTCTCCCAGCTGATGAATTACTTAGGTCGAGTAAACAAATTTTCCTAATCTTTCTGTTCAAGCGCCATCTAC | 0.265
15 | GATGATTGTTCTCCCAGCTGATGAATTTTCCGCATCGAGTAAACAAATTTTCCTAATCTTTCTGTTCAAGCGCCATCTAC | 1.07
16 | GATGATTGTTCTCCCAGCTGATGAATTTGTCTGCTCGAGTAAACAAATTTTCCTAATCTTTCTGTTCAAGCGCCATCTAC | 3.47

Row | Sequence | binding signal (RPM ratio (pull-down/input))
17 | GATGATTGTTCTCCCAGCTGATGAATTACAAAAGTCGAGTAAACAAATTTTCCTAATCTTTCTGTTCAAGCGCCATCTAC | 0.272
18 | GATGATTGTTCTCCCAGCTGATGAATTATAGGTATCGAGTAAACAAATTTTCCTAATCTTTCTGTTCAAGCGCCATCTAC | 0.744
19 | GATGATTGTTCTCCCAGCTGATGAATTATATCTGTCGAGTAAACAAATTTTCCTAATCTTTCTGTTCAAGCGCCATCTAC | 0.544
20 | GATGATTGTTCTCCCAGCTGATGAATTCGTAGCATCGAGTAAACAAATTTTCCTAATCTTTCTGTTCAAGCGCCATCTAC | 1.31
21 | GATGATTGTTCTCCCAGCTGATGAATTTACCAAATCGAGTAAACAAATTTTCCTAATCTTTCTGTTCAAGCGCCATCTAC | 0.518
22 | GATGATTGTTCTCCCAGCTGATGAATTAAAAAGGTCGAGTAAACAAATTTTCCTAATCTTTCTGTTCAAGCGCCATCTAC | 0.14
23 | GATGATTGTTCTCCCAGCTGATGAATTCACTTATTCGAGTAAACAAATTTTCCTAATCTTTCTGTTCAAGCGCCATCTAC | 0.589
24 | GATGATTGTTCTCCCAGCTGATGAATTCTTAGACTCGAGTAAACAAATTTTCCTAATCTTTCTGTTCAAGCGCCATCTAC | 0.216
25 | GATGATTGTTCTCCCAGCTGATGAATTCACGGGGTCGAGTAAACAAATTTTCCTAATCTTTCTGTTCAAGCGCCATCTAC | 0.202
26 | GATGATTGTTCTCCCAGCTGATGAATTTCTTGAGTCGAGTAAACAAATTTTCCTAATCTTTCTGTTCAAGCGCCATCTAC | 0.256
27 | GATGATTGTTCTCCCAGCTGATGAATTCGGAATGTCGAGTAAACAAATTTTCCTAATCTTTCTGTTCAAGCGCCATCTAC | 0.541
28 | GATGATTGTTCTCCCAGCTGATGAATTTCAAGTCTCGAGTAAACAAATTTTCCTAATCTTTCTGTTCAAGCGCCATCTAC | 0.308
29 | GATGATTGTTCTCCCAGCTGATGAATTCGGACTTTCGAGTAAACAAATTTTCCTAATCTTTCTGTTCAAGCGCCATCTAC | 0.935
30 | GATGATTGTTCTCCCAGCTGATGAATTTGTTGTCTCGAGTAAACAAATTTTCCTAATCTTTCTGTTCAAGCGCCATCTAC | 7.77
31 | GATGATTGTTCTCCCAGCTGATGAATTACGAATTTCGAGTAAACAAATTTTCCTAATCTTTCTGTTCAAGCGCCATCTAC | 1.23
